# Measured values from the supplement of paper PMC8728848.
# The other results are listed elsewhere or left out.
# B1: DrGal3 (Danio rerio) (protein)
# chain: MDLSDALDAPPQQNNQQAGGPVWPGQPANPVWPGQPANPTWPGQPNQPAWPGQPNQQWPGQPGQPTAPGWPGPAPQTGPYGAPGQAPQVLTVPLDFPLQNGAYNKMLITINGEVKPNAKQFTVNLRRGNDIAFHINPRFSEGGKPVIVRNSMIGNNWGREERELPSFPFVPGKPFEMKILITDTEYKVAVNKSHLLEFKHRVFELNQITGLSIYNDVTLSTVNVETLQ
# Columns and labels:
# Test in all cases: glycan array binding signal (z-score within array); higher = stronger binding
# Settings in all cases: glycan notation: IUPAC condensed, linker removed
# [1] = molecular target: GlcNAc(b1-3)Gal(b1-3)GalNAc
# Outline: (§1)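 Columns mapping to the same glycan were averaged after glycan names were converted to IUPAC-condensed notation. The data come from 3228 arrays in the Consortium for Functional Glycomics database, limited to those with an available protein sequence. Binding is reported as a within-array Z-score averaged across arrays of one protein sequence and across linkers.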
# [2] = molecular target: GlcNAc(b1-3)Gal(b1-4)Glc
# Outline: as §1
# [3] = molecular target: GlcNAc(b1-3)Gal(b1-4)GlcNAc
# Outline: as §1
# [4] = molecular target: GlcNAc(b1-3)Gal(b1-4)GlcNAc(b1-2)Man(a1-3)[GlcNAc(b1-3)Gal(b1-4)GlcNAc(b1-2)Man(a1-6)]Man(b1-4)GlcNAc(b1-4)GlcNAc
# Outline: as §1
# [5] = molecular target: GlcNAc(b1-3)Gal(b1-4)GlcNAc(b1-2)Man(a1-3)[GlcNAc(b1-3)Gal(b1-4)GlcNAc(b1-2)Man(a1-6)]Man(b1-4)GlcNAc(b1-4)[Fuc(a1-6)]GlcNAc
# Outline: as §1
# [6] = molecular target: GlcNAc(b1-3)Gal(b1-4)GlcNAc(b1-2)[GlcNAc(b1-3)Gal(b1-4)GlcNAc(b1-6)]Man(a1-6)[GlcNAc(b1-3)Gal(b1-4)GlcNAc(b1-2)Man(a1-3)]Man(b1-4)GlcNAc(b1-4)GlcNAc
# Outline: as §1
# [7] = molecular target: GlcNAc(b1-3)Gal(b1-4)GlcNAc(b1-3)Gal(b1-4)GlcNAc
# Outline: as §1
# [8] = molecular target: GlcNAc(b1-3)Gal(b1-4)GlcNAc(b1-3)Gal(b1-4)GlcNAc(b1-2)Man(a1-3)[GlcNAc(b1-3)Gal(b1-4)GlcNAc(b1-3)Gal(b1-4)GlcNAc(b1-2)Man(a1-6)]Man(b1-4)GlcNAc(b1-4)GlcNAc
# Outline: as §1
# [9] = molecular target: GlcNAc(b1-3)Gal(b1-4)GlcNAc(b1-3)Gal(b1-4)GlcNAc(b1-2)Man(a1-3)[GlcNAc(b1-3)Gal(b1-4)GlcNAc(b1-3)Gal(b1-4)GlcNAc(b1-2)Man(a1-6)]Man(b1-4)GlcNAc(b1-4)[Fuc(a1-6)]GlcNAc
# Outline: as §1
# [10] = molecular target: GlcNAc(b1-3)Gal(b1-4)GlcNAc(b1-3)Gal(b1-4)GlcNAc(b1-2)[GlcNAc(b1-3)Gal(b1-4)GlcNAc(b1-3)Gal(b1-4)GlcNAc(b1-6)]Man(a1-6)[GlcNAc(b1-3)Gal(b1-4)GlcNAc(b1-3)Gal(b1-4)GlcNAc(b1-2)Man(a1-3)]Man(b1-4)GlcNAc(b1-4)[Fuc(a1-6)]GlcNAc
# Outline: as §1
# [11] = molecular target: GlcNAc(b1-3)Gal(b1-4)GlcNAc(b1-3)Gal(b1-4)GlcNAc(b1-3)Gal(b1-4)GlcNAc(b1-2)Man(a1-3)[GlcNAc(b1-3)Gal(b1-4)GlcNAc(b1-3)Gal(b1-4)GlcNAc(b1-3)Gal(b1-4)GlcNAc(b1-2)Man(a1-6)]Man(b1-4)GlcNAc(b1-4)GlcNAc
# Outline: as §1
# [12] = molecular target: GlcNAc(b1-3)Gal(b1-4)GlcNAc(b1-3)Gal(b1-4)GlcNAc(b1-3)Gal(b1-4)GlcNAc(b1-2)Man(a1-3)[GlcNAc(b1-3)Gal(b1-4)GlcNAc(b1-3)Gal(b1-4)GlcNAc(b1-3)Gal(b1-4)GlcNAc(b1-2)Man(a1-6)]Man(b1-4)GlcNAc(b1-4)[Fuc(a1-6)]GlcNAc
# Outline: as §1
# [13] = molecular target: GlcNAc(b1-3)Gal(b1-4)GlcNAc(b1-3)Gal(b1-4)GlcNAc(b1-3)Gal(b1-4)GlcNAc(b1-2)[GlcNAc(b1-3)Gal(b1-4)GlcNAc(b1-3)Gal(b1-4)GlcNAc(b1-3)Gal(b1-4)GlcNAc(b1-6)]Man(a1-6)[GlcNAc(b1-3)Gal(b1-4)GlcNAc(b1-3)Gal(b1-4)GlcNAc(b1-3)Gal(b1-4)GlcNAc(b1-2)Man(a1-3)]Man(b1-4)GlcNAc(b1-4)[Fuc(a1-6)]GlcNAc
# Outline: as §1
# [14] = molecular target: GlcNAc(b1-3)Gal(b1-4)GlcNAc(b1-3)Gal(b1-4)GlcNAc(b1-3)Gal(b1-4)GlcNAc(b1-3)Gal(b1-4)GlcNAc(b1-2)Man(a1-3)[GlcNAc(b1-3)Gal(b1-4)GlcNAc(b1-3)Gal(b1-4)GlcNAc(b1-3)Gal(b1-4)GlcNAc(b1-3)Gal(b1-4)GlcNAc(b1-2)Man(a1-6)]Man(b1-4)GlcNAc(b1-4)GlcNAc
# Outline: as §1
# [15] = molecular target: GlcNAc(b1-3)Gal(b1-4)GlcNAc(b1-3)Gal(b1-4)GlcNAc(b1-3)Gal(b1-4)GlcNAc(b1-3)Gal(b1-4)GlcNAc(b1-2)Man(a1-3)[GlcNAc(b1-3)Gal(b1-4)GlcNAc(b1-3)Gal(b1-4)GlcNAc(b1-3)Gal(b1-4)GlcNAc(b1-3)Gal(b1-4)GlcNAc(b1-2)Man(a1-6)]Man(b1-4)GlcNAc(b1-4)[Fuc(a1-6)]GlcNAc
# Outline: as §1
# [16] = molecular target: GlcNAc(b1-3)Gal(b1-4)GlcNAc(b1-3)Gal(b1-4)GlcNAc(b1-3)Gal(b1-4)GlcNAc(b1-3)Gal(b1-4)GlcNAc(b1-2)[GlcNAc(b1-3)Gal(b1-4)GlcNAc(b1-3)Gal(b1-4)GlcNAc(b1-3)Gal(b1-4)GlcNAc(b1-3)Gal(b1-4)GlcNAc(b1-6)]Man(a1-6)[GlcNAc(b1-3)Gal(b1-4)GlcNAc(b1-3)Gal(b1-4)GlcNAc(b1-3)Gal(b1-4)GlcNAc(b1-3)Gal(b1-4)GlcNAc(b1-2)Man(a1-3)]Man(b1-4)GlcNAc(b1-4)[Fuc(a1-6)]GlcNAc
# Outline: as §1
# [17] = molecular target: GlcNAc(b1-3)Gal(b1-4)GlcNAc(b1-3)Gal(b1-4)GlcNAc(b1-3)GalNAc
# Outline: as §1
# [18] = molecular target: GlcNAc(b1-3)Gal(b1-4)GlcNAc(b1-3)GalNAc
# Outline: as §1
# [19] = molecular target: GlcNAc(b1-3)Gal(b1-4)GlcNAc(b1-3)[GlcNAc(b1-3)Gal(b1-4)GlcNAc(b1-3)]GalNAc
# Outline: as §1
# [20] = molecular target: GlcNAc(b1-3)Gal(b1-4)GlcNAc(b1-6)[Gal(b1-3)]GalNAc
# Outline: as §1
# [21] = molecular target: GlcNAc(b1-3)Gal(b1-4)GlcNAc(b1-6)[GlcNAc(b1-3)Gal(b1-3)]GalNAc
# Outline: as §1
# [22] = molecular target: GlcNAc(b1-3)Gal(b1-4)GlcNAc(b1-6)[GlcNAc(b1-3)]Gal(b1-4)GlcNAc
# Outline: as §1
# [23] = molecular target: GlcNAc(b1-3)GalNAc
# Outline: as §1
# [24] = molecular target: GlcNAc(b1-3)Man
# Outline: as §1
# [25] = molecular target: GlcNAc(b1-3)[GlcNAc(b1-4)][GlcNAc(b1-6)]GlcNAc
# Outline: as §1
# [26] = molecular target: GlcNAc(b1-3)[GlcNAc(b1-6)]Gal(b1-4)GlcNAc
# Outline: as §1
# [27] = molecular target: GlcNAc(b1-3)[GlcNAc(b1-6)]GalNAc
# Outline: as §1
# [28] = molecular target: GlcNAc(b1-4)Gal(b1-4)GlcNAc
# Outline: as §1
# [29] = molecular target: GlcNAc(b1-4)GlcNAc
# Outline: as §1
# [30] = molecular target: GlcNAc(b1-4)GlcNAc(b1-4)GlcNAc
# Outline: as §1
# [31] = molecular target: GlcNAc(b1-4)GlcNAc(b1-4)GlcNAc(b1-4)GlcNAc(b1-4)GlcNAc
# Outline: as §1
# [32] = molecular target: GlcNAc(b1-4)GlcNAc(b1-4)GlcNAc(b1-4)GlcNAc(b1-4)GlcNAc(b1-4)GlcNAc
# Outline: as §1
# [33] = molecular target: GlcNAc(b1-4)[GlcNAc(b1-6)]GalNAc
# Outline: as §1
# [34] = molecular target: GlcNAc(b1-6)Gal(b1-4)GlcNAc
# Outline: as §1
# [35] = molecular target: GlcNAc(b1-6)GalNAc
# Outline: as §1
# [36] = molecular target: GlcNAc6S(b1-3)Gal(b1-4)GlcNAc
# Outline: as §1
# [37] = molecular target: Kdn(a2-3)Gal(b1-3)GalNAc
# Outline: as §1
# [38] = molecular target: Kdn(a2-3)Gal(b1-3)GlcNAc
# Outline: as §1
# [39] = molecular target: Kdn(a2-3)Gal(b1-4)Glc
# Outline: as §1
# [40] = molecular target: Kdn(a2-3)Gal(b1-4)GlcNAc
# Outline: as §1
# [41] = molecular target: Kdn(a2-3)Gal(b1-4)[Fuc(a1-3)]GlcNAc
# Outline: as §1
# [42] = molecular target: Kdn(a2-6)Gal(b1-4)GlcNAc
# Outline: as §1
# [43] = molecular target: Man(a1-2)Man(a1-2)Man(a1-3)Man
# Outline: as §1
# [44] = molecular target: Man(a1-2)Man(a1-2)Man(a1-6)[Man(a1-3)]Man
# Outline: as §1
# [45] = molecular target: Man(a1-2)Man(a1-3)Man
# Outline: as §1
binder,measurement,setting,value
B1,glycan array binding signal (z-score),[1],-0.216
same,glycan array binding signal (z-score),[2],-0.284
same,glycan array binding signal (z-score),[3],-0.231
same,glycan array binding signal (z-score),[4],-0.104
same,glycan array binding signal (z-score),[5],-0.135
same,glycan array binding signal (z-score),[6],-0.177
same,glycan array binding signal (z-score),[7],1.15
same,glycan array binding signal (z-score),[8],2.31
same,glycan array binding signal (z-score),[9],3.28
same,glycan array binding signal (z-score),[10],1.72
same,glycan array binding signal (z-score),[11],2.87
same,glycan array binding signal (z-score),[12],6.12
same,glycan array binding signal (z-score),[13],3.34
same,glycan array binding signal (z-score),[14],5.4
same,glycan array binding signal (z-score),[15],5.55
same,glycan array binding signal (z-score),[16],3.29
same,glycan array binding signal (z-score),[17],0.689
same,glycan array binding signal (z-score),[18],-0.15
same,glycan array binding signal (z-score),[19],0.017
same,glycan array binding signal (z-score),[20],-0.099
same,glycan array binding signal (z-score),[21],-0.229
same,glycan array binding signal (z-score),[22],-0.193
same,glycan array binding signal (z-score),[23],-0.249
same,glycan array binding signal (z-score),[24],-0.263
same,glycan array binding signal (z-score),[25],-0.271
same,glycan array binding signal (z-score),[26],-0.168
same,glycan array binding signal (z-score),[27],-0.252
same,glycan array binding signal (z-score),[28],-0.157
same,glycan array binding signal (z-score),[29],-0.258
same,glycan array binding signal (z-score),[30],-0.27
same,glycan array binding signal (z-score),[31],-0.275
same,glycan array binding signal (z-score),[32],-0.217
same,glycan array binding signal (z-score),[33],-0.25
same,glycan array binding signal (z-score),[34],-0.221
same,glycan array binding signal (z-score),[35],-0.26
same,glycan array binding signal (z-score),[36],-0.183
same,glycan array binding signal (z-score),[37],-0.239
same,glycan array binding signal (z-score),[38],-0.284
same,glycan array binding signal (z-score),[39],-0.234
same,glycan array binding signal (z-score),[40],-0.17
same,glycan array binding signal (z-score),[41],-0.192
same,glycan array binding signal (z-score),[42],-0.191
same,glycan array binding signal (z-score),[43],-0.241
same,glycan array binding signal (z-score),[44],-0.28
same,glycan array binding signal (z-score),[45],-0.211
